From a compilation of properties of binary mixtures (doi:10.1016/j.molliq.2015.06.041)
The densities may have been worked out from excess volumes.

Experiment: xn = mol fraction of the nth substance listed
Conditions: 100 kPa

C1CCOC1 + C1CC(=O)OC1
x1 = 1
Conditions	mass density [kg/m3]
293.15 K	887.1
298.15 K	881.6
303.15 K	876.1
308.15 K	870.6
313.15 K	865
323.15 K	853.8

O=C1CCCO1 + C1CCOC1
mass density [kg/m3]
Conditions	x2 = 0	x2 = 0.1009	x2 = 0.2003	x2 = 0.3008	x2 = 0.4004	x2 = 0.4916	x2 = 0.5991	x2 = 0.6997	x2 = 0.8	x2 = 0.8997
293.15 K	1128.7	1106.7	1082.8	1058.9	–	–	984.2	–	935.5	910.7
298.15 K	1123.8	1101.8	1077.8	1053.9	1029.7	1007.6	979	955.1	930.2	905.3
303.15 K	1118.9	1096.9	1072.9	1048.9	1024.7	1002.5	973.8	949.8	924.9	–
308.15 K	1114	1091.9	–	1043.9	1019.6	–	968.6	944.5	919.5	894.5
313.15 K	–	1087	1062.9	1038.8	1014.5	992.2	–	939.2	914.1	889
318.15 K	1104.1	–	–	1033.8	–	–	958.2	933.9	908.7	883.5
323.15 K	1099.2	–	–	1028.7	–	981.9	952.9	928.6	903.3	877.9

COC(=O)OC + C1CC(=O)OC1
x1 = 1
Conditions	mass density [kg/m3]
293.15 K	1069.8
298.15 K	1063.2
303.15 K	1056.6
308.15 K	1050
323.15 K	1029.8
333.15 K	1016.2

CC#N + C1CC(=O)OC1
x1 = 1
Conditions	mass density [kg/m3]
293.15 K	782.3
298.15 K	776.9
303.15 K	771.5
308.15 K	766
313.15 K	760.5
318.15 K	755
323.15 K	749.4
328.15 K	743.8
333.15 K	738.2

O=C1CCCO1 + CC#N
mass density [kg/m3]
Conditions	x2 = 0	x2 = 0.1054	x2 = 0.1934	x2 = 0.3007	x2 = 0.4029	x2 = 0.5036	x2 = 0.6012	x2 = 0.702	x2 = 0.8008	x2 = 0.8993
293.15 K	1128.7	1106.8	–	1056.2	1026.5	994.1	960	919.4	–	832.5
298.15 K	1123.8	1101.9	1080.1	1051.1	1021.5	–	954.8	–	872.8	827.1
303.15 K	1118.9	1096.9	–	1046.1	1016.4	983.8	949.6	908.9	–	821.8
308.15 K	1114	–	1070.2	1041.1	1011.3	978.7	944.4	903.6	862.1	816.4
313.15 K	1109	1087	–	1036	1006.2	973.5	939.2	898.3	–	810.9
318.15 K	1104.1	1082.1	1060.2	1031	1001	968.3	934	893	851.4	805.5
323.15 K	1099.2	1077.1	1055.2	1025.9	995.9	963.1	928.7	887.7	846	800
328.15 K	1094.3	1072.2	1050.1	1020.8	990.8	957.9	923.4	–	840.5	–
333.15 K	1089.3	1067.2	–	1015.7	985.6	952.7	918.1	876.9	835.1	–

O=C1CCCO1 + COC(=O)OC
mass density [kg/m3]
Conditions	x2 = 0	x2 = 0.1013	x2 = 0.2013	x2 = 0.3001	x2 = 0.4006	x2 = 0.5	x2 = 0.5986	x2 = 0.6999	x2 = 0.7989	x2 = 0.8995
293.15 K	1128.7	–	1119.1	1113.9	1108.3	1102.5	1096.4	1090.3	1083.8	–
298.15 K	1123.8	1119.3	1113.9	–	1102.8	1096.8	1090.6	1084.4	1077.6	–
303.15 K	1118.9	–	–	1103.3	–	1091.2	1084.8	1078.4	1071.4	1064.3
308.15 K	1114	1109.2	1103.5	1098	1091.9	1085.5	1079	1072.4	1065.2	1057.8
313.15 K	1109	–	–	1092.6	–	–	1073.1	1066.3	1059	1051.4
318.15 K	1104.1	1099.1	–	1087.3	1080.9	1074.2	1067.3	1060.3	1052.7	–
323.15 K	1099.2	1094	1088	1082	1075.4	1068.5	1061.4	1054.2	1046.5	–
328.15 K	1094.3	1089	1082.8	1076.6	1069.8	–	1055.5	1048.1	1040.1	1031.9
333.15 K	–	1083.9	1077.6	1071.2	1064.3	1057.1	1049.6	1042	1033.8	1025.3
